Our source for the inhibition values is patent US4771041A, “Method for combating virus infection” (priority 1976, dated 1988).

As usually defined, the inhibition is the share of the control response that was lost under treatment. A lower inhibition goes with little suppression.

The structures appear in SMILES notation.

The target in the experiment is herpes simplex virus type 1 induced DNA polymerase (Human herpesvirus 1, UniProt P04293). Description: Inhibition of herpes simplex virus type 1 induced DNA polymerase. It counts as biochemical.

As to `O=C(O)P(=O)(O)O` [phosphonoformic acid], the inhibition at 5 µM (5 μM) turned out to be 15%. This compound came in with an inhibition at 20 µM (20 μM) of 43%. Under “500 μM”, this compound showed an inhibition at 500 µM of 90%.
